The values below come from ChEMBL document CHEMBL4888484, “Replenishing the malaria drug discovery pipeline: Screening and hit evaluation of the MMV Hit Generation Library 1 (HGL1) against asexual blood stage Plasmodium falciparum ,using a nano luciferase reporter read-out” (2022).

The whole screen tested about 150,000 compounds, of which about 540 (0.36%) showed an effect of 50% or more. The list shows a part of the results.

The experiment concerns Plasmodium falciparum. Kind of experiment: Primary screen in NF54 nanoGlo assay, in single point, at 2uM, 72h; a lower Z score goes with more inhibition. In kind it is functional, Erythrocyte. Conditions: timepoint 72 hour.
For orientation: % Inhibition means the drop in the measured response relative to a control, in per cent. Consider `Cc1noc(C)c1[C@@H](C)CNC(=O)c1c[nH]nc1C(C)(C)C`, for which the “% Inhibition” value was 1% and the Z score is listed as -0.17.

On to `O=S(=O)(c1ccc(NCCn2ccnc2)cc1)N1CCCC1`, for which the “% Inhibition” value was -1% and the Z score amounted to 0.13.

In the case of `CCN(C)C(=O)c1cccc(Nc2c(Oc3ccc(Cl)cc3)cnn(-c3ccc(OC)cc3)c2=O)c1`, the “% Inhibition” value is reported as -9% and the Z score is 0.89.

Consider `CC(C)N1CCC(CN2CCc3[nH]cnc3[C@@H]2Cc2ccccc2)CC1`, for which the “% Inhibition” value is -11% and the Z score worked out at 1.41.

As for `CN(CC(=O)N1CCNC(=O)C1)c1ccccc1Oc1ccccc1`, the “% Inhibition” value is given as 10% and the Z score is recorded as -1.85.

Consider `O[C@H](COc1ccccc1)CN1CCN(Cc2cnc3ccccc3c2)CC1`, for which the “% Inhibition” value is recorded as -4% and the Z score is recorded as 0.4.

`CN1CCC(Cc2nc(CN3CCCCCC3)n(CCO)n2)CC1`: the “% Inhibition” value is listed as -4% and the Z score was 0.94.

Take `CCC(=O)NC[C@@H]1C[C@H](F)CN1C(=O)Cc1cc(C)no1`: the “% Inhibition” value is reported as -2% and the Z score amounted to 0.24.

Turning to `CC(C)N1CC(NS(=O)(=O)CCC(C)(C)C)C1`, the “% Inhibition” value was -9% and the Z score is 1.28.

For `Cc1cc(NC(=O)Cn2nnc(C(C)(C)C)n2)n(C2CCCCC2)n1`, the “% Inhibition” value is on record as -4% and the Z score came to 0.52.

Regarding `CC(C)Oc1cc(CNC(=O)N2CCC[C@@H]2CF)ccn1`, the “% Inhibition” value was determined as 9% and the Z score is listed as -1.1.

Consider `Cn1nccc1COCC(=O)N1CC(C)(C)Oc2ccccc21`, for which the “% Inhibition” value was -11% and the Z score is 1.78.

For `Cc1sc(C(=O)N2CC[C@H](C(=O)O)C2)cc1-c1ccc(F)cc1`, the “% Inhibition” value is -12% and the Z score was 1.69.

For `c1ccc2c(-c3csc(NC4CC4)n3)c[nH]c2c1`, the “% Inhibition” value is 7% and the Z score is given as -0.83.

For the compound `Cc1ccc(NC(=O)n2ccc([C@H](C)Oc3ccc(-c4ccccc4)c(F)c3)n2)cc1`, the “% Inhibition” value is given as 1% and the Z score is reported as -0.18.

In the case of `COc1cccc([C@@]2(CC(=O)N3CCC(C)CC3)CC(=O)N(C3CCCC3)C2=O)c1`, the “% Inhibition” value is recorded as -15% and the Z score was found to be 2.33.

As to `Cc1noc(C)c1CN1C[C@H]2CC[C@@H](C1)N(CCCOc1ccccc1)C2`, the “% Inhibition” value is listed as -5% and the Z score stood at 0.83.

In the case of `Cc1c(-c2csc(C[C@H](C)n3cc(Cl)cn3)n2)oc2ccccc12`, the “% Inhibition” value is on record as 8% and the Z score is given as -1.04.

Turning to `CN(Cc1ccccc1Br)C(=O)CCNC(=O)Nc1cccnc1`, the “% Inhibition” value was -5% and the Z score is recorded as 0.96.

As for `COc1cccc(C[C@@H]2C(=O)N(C)c3ccc(Br)cc32)c1OC1CCCC1`, the “% Inhibition” value is -13% and the Z score is on record as 1.11.

Consider `Cn1ccnc1-c1nccn1Cc1csc2ccc(Cl)cc12`, for which the “% Inhibition” value is -5% and the Z score is 0.66.

For `O=c1c2ccccc2nnn1CN1CCOC2CCCCC21` (stereo unspecified), the “% Inhibition” value was -12% and the Z score stood at 1.65.

In the case of `CCO[C@@H](C)CN(C)C(=O)c1cccc(-c2ccc3scnc3c2)c1`, the “% Inhibition” value is on record as -9% and the Z score is given as 1.07.

For the compound `CCN1C(=O)CCN(S(=O)(=O)c2cccc(OC)c2)CC12CCOCC2`, the “% Inhibition” value was -8% and the Z score is recorded as 1.01.

As to `COc1cccc(CNC(=O)c2cc3c(n2C)CCN(Cc2cccc(F)c2)C3)c1`, the “% Inhibition” value is recorded as -11% and the Z score was 1.42.

As for `COc1ccc(Cn2nc3cnccn3c2=O)cn1`, the “% Inhibition” value is on record as -4% and the Z score was 0.5.

Turning to `CN1CCC(N(Cc2ccncc2)Cc2cnc(-c3ccco3)nc2)CC1`, the “% Inhibition” value was -1% and the Z score turned out to be 0.21.

For the compound `CCN(Cc1c(C)nn(CC)c1C)C(=O)c1cc(-c2cnn(C)c2)nc2onc(C)c12`, the “% Inhibition” value is on record as -16% and the Z score amounted to 3.18.

In the case of `O=C(Nc1nnc([C@H]2CC(=O)N(c3ccccc3)C2)o1)c1ccccn1`, the “% Inhibition” value is given as -12% and the Z score worked out at 1.84.

As for `Cc1ncsc1NC(=O)c1cc(O)nc(C(C)C)c1`, the “% Inhibition” value is -9% and the Z score amounted to 0.76.

With `C#CC(OC(=O)C1CCCN1C(=O)C(F)(F)F)C1CC1` (stereo unspecified), the “% Inhibition” value was -5% and the Z score came to 0.68.

For `CC(C)NC(=O)N1CCC(C(=O)NC2CC2)CC1`, the “% Inhibition” value stood at 2% and the Z score is -0.22.

In the case of `COc1cc2ccccc2cc1-c1nnc(-c2ccc(Cl)cc2Cl)o1`, the “% Inhibition” value was -14% and the Z score was 1.79.

On to `O=C(NCC1CCN(c2cc(O)ncn2)CC1)c1ccncc1`, for which the “% Inhibition” value was -10% and the Z score is reported as 1.23.

With `COCCc1noc([C@@H]2CC=CCC2)n1`, the “% Inhibition” value came out at 5% and the Z score is given as -0.77.

With `COCc1ncc(CN2CCc3ccc(OC)cc3CC2)cn1`, the “% Inhibition” value is -17% and the Z score is listed as 1.52.

In the case of `CC1CN(C(=O)CCN2CCc3sccc3C2c2cccc(F)c2)CCN1C(=O)c1cccs1` (stereo unspecified), the “% Inhibition” value is 0% and the Z score is reported as -0.05.

In the case of `COc1cc([C@H](CC(=O)NC2CCN(Cc3ccccc3)CC2)N2Cc3ccccc3C2=O)cc(OC)c1OC`, the “% Inhibition” value was found to be 68% and the Z score is -9.85.

In the case of `Cc1[nH]cnc1CN1CCC2(CC1)C[C@H](c1ccccc1)CN(C1CC1)C2`, the “% Inhibition” value is reported as 2% and the Z score is -0.46.

For the compound `Cc1ccc(C)c(S(=O)(=O)NCCN[C@@H](C)c2cn[nH]c2C)c1`, the “% Inhibition” value was -6% and the Z score came to 0.74.

With `COCCN(Cc1cc(NC(=O)NC(C)(C)C)ccc1N(C)C)C(=O)c1cccs1`, the “% Inhibition” value is reported as -11% and the Z score stood at 1.54.

With `Cc1cc(C(=O)N(CCC#N)C2CC2)c2c(-c3ccco3)noc2n1`, the “% Inhibition” value is listed as -6% and the Z score stood at 0.66.

In the case of `OCCc1cn(C2CCN(c3cc(N4CCOCC4)ncn3)CC2)nn1`, the “% Inhibition” value is -6% and the Z score came out at 0.92.
